# From the supplement of paper PMC7826260
# The list shows a part of the results. Viral Rep nickase domains cut single-stranded DNA in vitro (3 µM enzyme, 1 h, 37 °C); shown is the middle of each 90-letter strand. A value is the log2 ratio of uncut reads to the pool without enzyme; more negative means more cut, near 0 not cut, and no call is made. Shares of all reads are compared, so uncut sequences can rise above 0 when many others are cut.
# How the values were obtained:
# Assay in all cases: uncleaved DNA left, log2 of reads against the no-enzyme library (log2 ratio); higher = less cleavage (more negative = more Rep cleavage of the k-mer); sequences stand for … in CTCGTCCG…ACCGGAGA
# [1] = system: T1, Rep nickase domain of Muscovy duck circovirus
# T1 sequence (residues 1-111, tag not shown): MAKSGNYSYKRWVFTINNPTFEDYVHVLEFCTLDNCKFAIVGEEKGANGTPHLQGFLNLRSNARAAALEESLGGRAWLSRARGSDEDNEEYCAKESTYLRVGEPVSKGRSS
# Description: (§1)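 A pool of 90-nt single-stranded DNAs with seven random bases just before the constant AC of the nick site (name = the seven bases) was cut by 3 µM recombinant His6-SUMO-tagged Rep nickase domain (300 nM DNA, 50 mM HEPES pH 8.0, 50 mM NaCl, 1 mM MnCl2, 1 h, 37 °C, three replicates). Uncut DNA was amplified and sequenced.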
# [2] = system: T2, Rep nickase domain of banana bunchy top virus
# T2 sequence (residues 1-94, tag not shown): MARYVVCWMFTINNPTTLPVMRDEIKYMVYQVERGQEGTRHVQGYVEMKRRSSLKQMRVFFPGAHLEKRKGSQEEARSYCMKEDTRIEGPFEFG
# Description: as §1
# [3] = system: T3, Rep nickase domain of cabbage leaf curl virus
# T3 sequence (residues 1-116, tag not shown): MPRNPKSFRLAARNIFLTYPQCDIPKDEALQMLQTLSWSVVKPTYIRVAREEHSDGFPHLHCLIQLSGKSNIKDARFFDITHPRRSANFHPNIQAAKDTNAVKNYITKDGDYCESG
# Description: as §1
# [4] = system: T4, Rep nickase domain of chickpea chlorotic dwarf virus
# T4 sequence (residues 1-124, tag not shown): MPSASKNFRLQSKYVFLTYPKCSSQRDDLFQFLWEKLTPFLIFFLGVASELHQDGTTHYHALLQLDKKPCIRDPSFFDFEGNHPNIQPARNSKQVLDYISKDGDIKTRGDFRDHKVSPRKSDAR
# Description: as §1
# [5] = system: T5, Rep nickase domain of faba bean necrotic yellows virus
# T5 sequence (residues 1-98, tag not shown): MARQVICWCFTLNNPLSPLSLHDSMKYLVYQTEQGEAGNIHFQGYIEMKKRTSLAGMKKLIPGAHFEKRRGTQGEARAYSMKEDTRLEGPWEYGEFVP
# Description: as §1
# [6] = system: T6, Rep nickase domain of maize striate mosaic virus
# T6 sequence (residues 1-117, tag not shown): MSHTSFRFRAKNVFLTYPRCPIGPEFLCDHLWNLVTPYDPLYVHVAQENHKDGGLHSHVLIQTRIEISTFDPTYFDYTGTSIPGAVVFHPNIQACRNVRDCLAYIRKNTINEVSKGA
# Description: as §1
# [7] = system: T7, Rep nickase domain of porcine circovirus 2
# T7 sequence (residues 2-116, tag not shown): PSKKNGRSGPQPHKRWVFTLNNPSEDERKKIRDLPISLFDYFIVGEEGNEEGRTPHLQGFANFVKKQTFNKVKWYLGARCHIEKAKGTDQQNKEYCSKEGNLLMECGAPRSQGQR
# Description: as §1
# [8] = system: T8, Rep nickase domain of tomato golden mosaic virus
# T8 sequence (residues 1-124, tag not shown): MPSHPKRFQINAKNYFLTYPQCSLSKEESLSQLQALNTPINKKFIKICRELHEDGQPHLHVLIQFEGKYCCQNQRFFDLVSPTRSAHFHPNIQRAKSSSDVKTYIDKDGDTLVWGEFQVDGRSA
# Description: as §1
# [9] = system: T9, Rep nickase domain of tomato yellow leaf curl virus
# T9 sequence (residues 1-136, tag not shown): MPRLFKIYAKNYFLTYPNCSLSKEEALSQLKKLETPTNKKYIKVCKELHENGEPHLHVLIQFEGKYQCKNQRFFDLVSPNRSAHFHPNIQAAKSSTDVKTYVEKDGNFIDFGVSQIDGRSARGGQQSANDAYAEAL
# Description: as §1
# [10] = system: T10, Rep nickase domain of wheat dwarf virus
# T10 sequence (residues 1-137, tag not shown): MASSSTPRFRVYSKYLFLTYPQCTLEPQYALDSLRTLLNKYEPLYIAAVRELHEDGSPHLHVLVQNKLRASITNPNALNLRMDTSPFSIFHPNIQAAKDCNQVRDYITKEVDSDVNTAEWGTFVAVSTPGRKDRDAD
# Description: as §1
Sequence,uncleaved DNA left (log2) [1],uncleaved DNA left (log2) [2],uncleaved DNA left (log2) [3],uncleaved DNA left (log2) [4],uncleaved DNA left (log2) [5],uncleaved DNA left (log2) [6],uncleaved DNA left (log2) [7],uncleaved DNA left (log2) [8],uncleaved DNA left (log2) [9],uncleaved DNA left (log2) [10]
ATCCGTT,-0.0886,-0.155,-0.303,-1.18,-0.205,-0.886,-0.81,-0.267,-0.184,-0.171
CTTGGAT,0.148,0.123,0.285,1.64,0.0435,1.87,0.119,0.0927,-0.0678,0.123
GTTTGTA,0.0438,0.012,0.325,0.876,0.0207,1.73,0.0464,0.0771,0.199,0.0711
TCCGCTG,-0.132,-0.0438,0.158,0.714,-0.0971,1.18,0.0115,-0.124,-0.344,-0.0859
CTCCTGA,0.106,0.14,0.025,0.00602,0.0766,-0.208,0.134,-0.064,0.183,0.194
GGATCTC,-0.0549,-0.0342,0.396,0.898,-0.104,1.64,-0.03,-0.072,0.0156,0.0157
CTATGGA,0.08,0.0287,-0.0437,-0.0174,0.0388,-0.557,0.122,0.237,-0.0391,0.0596
GATGTCT,0.0232,-0.164,0.111,-1.03,0.0268,0.412,-0.226,0.00522,0.0857,0.0181
CATATGT,0.123,-0.15,-0.0169,-0.587,0.0687,-0.888,-0.286,0.0888,0.129,0.0654
AGCTTTT,-1.64,-0.149,-0.154,-1.64,-0.0489,0.00204,-3.48,-0.0731,0.0585,-0.159
ATCAAGG,-0.00871,0.0299,0.33,1.23,-0.0452,0.593,0.135,0.0173,-0.0476,0.0113
GCGAAAG,-0.0827,0.0205,-0.19,0.413,0.00337,-0.0528,0.139,0.0558,0.088,0.00498
TTATCGC,0.00198,-0.0296,-0.493,-0.674,0.0311,-1.24,0.0998,-0.163,0.048,-0.0544
GGGTAAC,0.0416,0.0642,0.726,1.72,0.0322,2.19,0.129,0.115,0.0893,0.139
TAAAAAG,0.031,0.079,-1.24,-2.19,0.224,-1.39,0.153,0.0644,0.111,-0.0607
GTCCCGA,0.0455,0.0353,0.304,0.742,-0.0351,1.32,0.167,0.0349,-0.0233,0.0285
CCTGGAT,0.00751,-0.0352,0.246,1.57,0.19,1.91,0.219,0.217,-0.117,-0.0349
GTGATAC,-0.143,-0.0272,0.0889,0.711,-0.163,1.73,-0.088,-0.0194,-0.0264,-0.00385
AACTATC,0.0486,-0.143,-0.116,-0.683,0.0247,-0.8,-2.5,-0.0486,0.0358,0.013
TCCGCAT,-0.133,-0.219,-0.0164,-0.282,-0.302,-0.466,-0.118,-0.294,-0.0786,-0.155
TACTCTC,-2.23,-0.41,-0.95,-2.02,-0.0112,-0.411,-3.11,-0.199,-0.149,-0.151
TTTATGT,0.0693,-0.0497,0.0528,-0.193,-0.0621,-0.635,-0.261,-0.0508,-0.0471,-0.039
CCGGAGC,-0.0285,-0.0371,-0.113,0.0253,-0.121,-0.408,-0.0248,-0.00909,-0.0679,-0.132
GGATTGC,0.00987,0.0301,-0.465,0.0252,0.00652,-0.407,0.135,0.0187,0.0285,-0.0652
CTCTTCT,-1.41,-0.201,-0.176,-2.42,-0.202,-0.939,-3.23,-0.108,-0.0463,-0.113
TCATATT,-3.78,-2.68,-4.09,-3.57,-0.653,-3,-3.84,-3.34,-0.163,-3.55
TGGTACA,0.0389,0.0718,0.137,0.323,-0.0934,1.72,-0.149,-0.0548,0.0249,-0.0811
GCACCAA,-0.0921,0.0168,0.0169,0.227,-0.0804,0.00134,-0.0431,-0.104,-0.00739,0.0235
CGCATTT,0.112,0.0857,-0.155,-1.6,0.108,-0.562,-0.0843,0.0141,0.147,0.106
CAAGCCG,0.0495,0.0154,-0.717,-0.468,0.0363,-0.89,0.099,-0.0698,-0.044,-0.132
